Results published in the supplement of paper PMC7826260.
Some of the results follow. Each Rep nickase domain was tested in vitro on the same pool of single strands (3 µM enzyme, 1 h, 37 °C); shown is the middle of each 90-letter strand. A value is the log2 ratio of uncut reads to the pool without enzyme; the lower, the more was cut; hits are not called. Because reads are shares of a total, they shift together; uncut strands gain when others are lost, and binding without cutting may add a little.

Legend:
Assay in all cases: uncleaved DNA left, log2 of reads against the no-enzyme library (log2 ratio); higher = less cleavage (more negative = more Rep cleavage of the k-mer); sequences stand for … in CTCGTCCG…ACCGGAGA
[1] = tested on: T1, Rep nickase domain of Muscovy duck circovirus
T1 sequence (protein, residues 1-111, tag omitted): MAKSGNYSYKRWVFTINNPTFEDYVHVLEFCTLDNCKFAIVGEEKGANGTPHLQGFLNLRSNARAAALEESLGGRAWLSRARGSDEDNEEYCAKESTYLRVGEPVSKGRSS
Method: (§1)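 A pool of 90-nt single-stranded DNAs with seven random bases just before the constant AC of the nick site (name = the seven bases) was cut by 3 µM recombinant His6-SUMO-tagged Rep nickase domain (300 nM DNA, 50 mM HEPES pH 8.0, 50 mM NaCl, 1 mM MnCl2, 1 h, 37 °C, three replicates). Uncut DNA was amplified and sequenced.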

[2] = tested on: T2, Rep nickase domain of banana bunchy top virus
T2 sequence (protein, residues 1-94, tag omitted): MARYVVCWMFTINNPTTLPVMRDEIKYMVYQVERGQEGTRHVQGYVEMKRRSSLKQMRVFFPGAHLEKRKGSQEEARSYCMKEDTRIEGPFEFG
Method: as §1

[3] = tested on: T3, Rep nickase domain of cabbage leaf curl virus
T3 sequence (protein, residues 1-116, tag omitted): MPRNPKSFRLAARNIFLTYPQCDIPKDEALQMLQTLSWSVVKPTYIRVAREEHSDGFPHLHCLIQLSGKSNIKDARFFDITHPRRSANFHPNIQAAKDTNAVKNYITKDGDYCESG
Method: as §1

[4] = tested on: T4, Rep nickase domain of chickpea chlorotic dwarf virus
T4 sequence (protein, residues 1-124, tag omitted): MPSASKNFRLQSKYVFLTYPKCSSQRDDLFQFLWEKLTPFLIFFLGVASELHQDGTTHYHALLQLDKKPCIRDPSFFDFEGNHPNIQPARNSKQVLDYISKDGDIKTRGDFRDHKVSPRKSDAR
Method: as §1

[5] = tested on: T5, Rep nickase domain of faba bean necrotic yellows virus
T5 sequence (protein, residues 1-98, tag omitted): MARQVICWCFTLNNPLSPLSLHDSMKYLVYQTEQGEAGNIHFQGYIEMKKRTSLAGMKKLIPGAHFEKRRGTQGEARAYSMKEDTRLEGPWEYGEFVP
Method: as §1

[6] = tested on: T6, Rep nickase domain of maize striate mosaic virus
T6 sequence (protein, residues 1-117, tag omitted): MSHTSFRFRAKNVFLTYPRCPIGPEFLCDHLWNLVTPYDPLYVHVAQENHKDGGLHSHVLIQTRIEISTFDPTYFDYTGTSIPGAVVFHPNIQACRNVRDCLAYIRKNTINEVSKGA
Method: as §1

[7] = tested on: T7, Rep nickase domain of porcine circovirus 2
T7 sequence (protein, residues 2-116, tag omitted): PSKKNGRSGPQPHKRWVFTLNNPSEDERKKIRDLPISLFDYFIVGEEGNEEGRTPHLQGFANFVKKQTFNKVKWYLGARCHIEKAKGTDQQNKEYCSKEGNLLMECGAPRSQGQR
Method: as §1

[8] = tested on: T8, Rep nickase domain of tomato golden mosaic virus
T8 sequence (protein, residues 1-124, tag omitted): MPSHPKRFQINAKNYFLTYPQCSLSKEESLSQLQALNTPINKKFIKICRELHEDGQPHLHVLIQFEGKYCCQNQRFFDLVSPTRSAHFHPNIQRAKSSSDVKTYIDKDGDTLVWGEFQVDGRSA
Method: as §1

[9] = tested on: T9, Rep nickase domain of tomato yellow leaf curl virus
T9 sequence (protein, residues 1-136, tag omitted): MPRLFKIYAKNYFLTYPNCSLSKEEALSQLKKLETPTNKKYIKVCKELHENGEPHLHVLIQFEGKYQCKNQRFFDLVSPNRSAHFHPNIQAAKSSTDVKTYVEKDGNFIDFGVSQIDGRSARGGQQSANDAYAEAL
Method: as §1

[10] = tested on: T10, Rep nickase domain of wheat dwarf virus
T10 sequence (protein, residues 1-137, tag omitted): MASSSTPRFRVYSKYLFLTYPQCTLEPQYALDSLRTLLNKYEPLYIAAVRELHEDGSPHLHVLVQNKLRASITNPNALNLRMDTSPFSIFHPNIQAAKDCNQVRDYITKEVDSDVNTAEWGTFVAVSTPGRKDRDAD
Method: as §1

Sequence	uncleaved DNA left (log2) [1]	uncleaved DNA left (log2) [2]	uncleaved DNA left (log2) [3]	uncleaved DNA left (log2) [4]	uncleaved DNA left (log2) [5]	uncleaved DNA left (log2) [6]	uncleaved DNA left (log2) [7]	uncleaved DNA left (log2) [8]	uncleaved DNA left (log2) [9]	uncleaved DNA left (log2) [10]
CCTGGGT	-0.0207	0.00816	0.114	0.658	0.0034	0.651	-0.074	0.00771	-0.0597	-0.0819
TTAGGAG	0.066	-0.044	-0.191	-0.0834	-0.00651	-0.7	0.172	0.0934	0.0522	0.062
GATTCTG	-0.0423	-0.0855	0.0998	0.68	-0.0155	0.922	0.149	0.0522	-0.0918	-0.00811
GTTTTGT	-0.0634	0.106	0.321	0.881	0.129	1.52	0.0212	0.0884	0.103	0.0631
CTGGGGA	-0.0367	-0.154	0.505	0.852	0.0969	1.33	0.136	-0.115	-0.115	-0.0287
TCTTCGA	-0.0286	-0.134	-0.382	-0.743	-0.0988	-1.03	-0.0138	-0.154	-0.0615	-0.083
CGTACTA	-0.0107	-0.0749	-0.0429	-0.219	0.0303	0.788	-0.12	-0.11	0.0324	0.125
ATTGAGC	0.00729	0.0549	-0.342	-0.368	0.0778	-0.835	0.15	0.0425	-0.0521	-0.122
CCACTTG	-0.0799	-0.16	-0.489	-1.1	0.0411	-1.07	0.0771	-0.0975	-0.00543	-0.192
ACGTCAC	-0.0898	-0.062	-0.238	-0.298	-0.0918	-0.773	0.00696	-0.0355	-0.182	-0.0818
AAACGTA	0.0438	-0.00468	-0.219	-1.86	0.114	-0.625	-0.0118	0.0675	-0.0181	-0.0488
ATCGCGT	-0.0432	-0.0438	-0.817	-0.0696	-0.0822	-0.767	0.136	-0.0126	0.0659	-0.0832
TAATGGG	0.0281	0.0159	-1.07	-1.12	-0.0863	-1.14	0.154	-0.0276	0.056	-0.0779
TGCGCGA	0.0389	-0.0675	-0.743	-0.473	-0.0674	-0.833	0.112	-0.162	-0.0554	-0.134
CACCCTA	-0.125	-0.212	-0.336	-2.6	-0.168	-0.659	-0.902	-0.31	-0.205	-0.21
AAATTAC	0.0166	0.0989	-1.04	-2.55	0.142	-0.97	0.0351	-0.0266	0.057	-0.113
CCTGATC	0.0973	-0.082	0.194	0.343	0.259	0.284	0.0661	-0.107	0.12	0.0214
GATGGTG	-0.0692	0.0256	-0.474	-0.361	0.0503	-0.757	0.0863	0.0254	-0.154	-0.116
GACATTA	-0.0259	0.147	0.825	1.49	0.0111	2.02	0.174	0.0569	0.0906	0.201
CAGATGG	0.0765	-0.0277	-0.22	-0.14	0.0828	-0.828	0.123	0.0263	-0.127	-0.0764
TGTACGA	-0.0115	0.116	0.149	0.0398	0.0716	-0.346	0.0789	-0.00771	0.0821	0.06
GTATTCC	-0.047	0.0114	0.288	0.809	0.0239	1.64	0.0137	0.097	0.0187	0.0568
GTATGCC	0.105	0.00665	0.128	0.531	0.0345	0.287	0.0745	-0.00251	0.134	-0.00339
CCACGGT	0.0378	-0.0755	0.122	-0.134	0.0308	0.641	-0.0289	0.132	-0.154	-0.0521
GAGCATC	-0.0154	0.0771	0.415	1.21	0.0113	1.42	-0.0225	-0.0552	0.0836	0.0812
GCCCATA	0.166	0.089	0.0899	0.255	-0.0138	0.284	0.114	0.109	0.179	0.268
CGGCTAT	-0.0114	0.0154	0.191	0.845	0.0183	1.04	0.018	-0.0658	0.221	0.0302
CGCTTTG	-0.00455	-0.0617	-0.369	-0.298	-0.0449	-0.53	-0.0363	-0.0989	-0.0846	-0.049
ACTTGAT	0.0255	0.0441	-0.0992	-0.313	0.0283	-0.453	-1.44	0.135	-0.00276	-0.0189
TAATCAC	-0.101	0.000925	-3.5	-2.98	-0.156	-2.44	-0.208	-3.41	-0.0155	-3.23
